According to the supplement of paper PMC7335073:
Over roughly 4,100 sequences, “relative CpG methylation activity (normalised to average over all NNNCGNNN flanks)” has its median near 0.87; the highest 2% begin near 2.4. The list shows a part of the results.

Target: DNMT3A catalytic domain (mouse) (UniProt O88508)
Test: relative CpG methylation activity (normalised to average over all NNNCGNNN flanks) (relative (1 = mean)); higher = more methylation of the central CpG
Conditions: system: in vitro, murine catalytic domain; CpG state: hemimethylated substrate pool; residues: 608-908
Experimental: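 Deep enzymology: a pool of dsDNA substrates with a central CpG flanked by 10 random nucleotides on each side was methylated by the murine DNMT3A or DNMT3B catalytic domain (0.8 mM SAM, 37 °C, 60 min). Methylation was then read out by hairpin ligation, bisulfite conversion and NGS. Values are the average methylation of each NNNCGNNN context (±3 flanks; the outer flanks are random and averaged over), normalised to the overall mean, so 1 = average activity.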

Sequence	relative CpG methylation activity
CACCGAAG	0.439
AGACGTCT	1.14
TGCCGGCC	0.873
AAGCGGGG	0.352
AAGCGCGA	0.436
GAGCGATC	0.793
GGACGCGG	0.17
GACCGTAT	0.549
AGACGGGG	0.692
CCACGTGT	0.761
AAACGTTG	0.283
GGCCGGGT	0.776
TGACGCTT	1.05
ACCCGCCC	2.24
GTTCGAAT	0.621
TTTCGCCC	2.2
TTGCGTTA	1.86
TGGCGCGG	0.288
GCCCGGTG	0.679
AGACGACT	0.561
AAGCGCAA	0.599
GACCGATA	1.09
GTACGAAG	1.29
TCGCGGAC	1.16
CTGCGAAA	1.32

Sequence	relative CpG methylation activity
GGGCGGAG	0.385
AACCGTGC	0.379
CCACGTGA	0.741
TTGCGAAT	0.969
GCGCGGTA	0.841
CTACGAAG	0.858
GTCCGTCC	2.02
TATCGCAG	0.425
GGCCGCAA	0.657
GAACGGCG	0.598
CGACGCAT	0.473
CATCGAGA	0.307
TGGCGCGA	0.511
CTGCGGCA	1.54
AACCGCCA	1.02
TGTCGTAC	0.709
CATCGACA	0.882
TAACGGCG	0.782
TCTCGGCC	1.46
ACACGAAA	1.49
AGTCGATT	0.5
GAACGATG	0.461
GTGCGAAA	1.46
TCACGGTG	0.573
TTCCGACG	1.77

Sequence	relative CpG methylation activity
GCACGTAT	0.826
TCACGCCT	2.16
GCCCGTCT	1.29
CCCCGTAC	1.17
AGGCGGAG	0.303
AGTCGGCA	0.604
GGACGCCT	1.04
GTACGTTC	1.95
GATCGCTC	1.32
AATCGCTG	0.484
GAACGGGG	0.693
GGACGCCA	1.08
TACCGAAA	0.93
CGGCGTCT	0.298
GGACGGCT	1
TAGCGTCA	1.01
CGTCGATC	0.617
TAACGCGG	0.271
TTTCGGTA	0.93
TGTCGCTG	0.867
ACCCGAAT	1.11
GTACGGCC	2.27
AGGCGTAC	0.5
AGACGCAT	0.724
ATCCGCAC	1.91

Sequence	relative CpG methylation activity
TCACGTAC	1.51
GCTCGCTA	0.845
GTGCGAGC	1.43
GCTCGTAT	0.654
GGTCGAGG	0.204
CTGCGCAA	1.55
GTGCGTTA	1.12
GACCGATG	0.705
GTCCGAGT	1.99
CCACGTTT	1.1
TAACGCCA	1.06
GCTCGCCG	1.72
TGACGTAG	0.41
CTTCGAGT	1.05
TGGCGAGC	0.904
ATGCGATT	1.37
GGACGGGT	0.4
ATCCGCGA	1.03
AGTCGACA	0.556
GCACGACT	1.18
GCCCGTTT	0.909
CGACGTGC	0.326
CCTCGAAA	1.21
TTTCGCGT	1.33
AATCGCTT	1.05

Sequence	relative CpG methylation activity
AAGCGTGC	0.148
CGACGCAC	0.839
GTCCGCGT	1.71
CGTCGCAG	0.432
ACCCGGAG	0.341
CTTCGATA	1.19
TGGCGCGC	0.482
TTACGGCA	1.83
TACCGATC	1.47
GGACGCTC	1.28
GTTCGCTG	1.46
CCGCGACG	0.894
CATCGCCT	1.25
TCCCGGAT	0.748
CCCCGACC	1.63
GCCCGCAA	0.822
GTTCGCCA	1.76
ACACGCCA	2.02
GTGCGTTC	1.2
ACCCGGAT	0.573
ACACGGCG	1.02
ACGCGTAA	0.973
TCGCGATT	0.833
TACCGCGG	0.413
AACCGCAA	0.888

Sequence	relative CpG methylation activity
ATACGCCA	2.6
CGGCGGGA	0.484
TGGCGATA	0.575
CTTCGTAG	1.01
GGCCGAAC	0.982
CGTCGAAA	0.684
GTTCGCGA	1.03
TAGCGATG	0.185
GATCGTAC	0.376
GAGCGGTC	0.845
AGTCGTCA	0.662
AAACGTGG	0.174
CTTCGATG	0.526
TCGCGGGA	0.846
CATCGTAT	0.191
TGACGTTA	0.6
TCACGAAC	1.69
CTCCGCGA	1.63
GCGCGACG	0.797
TTGCGATG	0.833
TTCCGCGT	1.64
ATCCGACG	1.55
TGTCGTAT	0.455
CCGCGGCT	1
GGACGGTA	0.661

Sequence	relative CpG methylation activity
CGGCGTAA	0.615
ACACGCAG	0.72
AGGCGTGC	0.36
TAGCGGAG	0.152
ACCCGTTT	1.09
CCACGGAA	1.24
TATCGTCC	1.31
GGTCGCAC	0.808
CTTCGCTA	1.66
TCGCGCGG	0.476
CTTCGGTA	0.721
AAGCGGCG	0.349
TGCCGATA	0.785
CGACGAGA	0.567
CGGCGTGC	0.221
TAGCGTCC	1.13
CTCCGCTG	1.82
CGTCGCAT	0.8
GATCGAAC	0.6
GGCCGTAC	0.986
TACCGTTG	0.4
ACCCGAAA	1.34
